Read counts are not given, so values of variants with three or more changes are uncertain.

For 21 variants, self-cleavage results are on record in the RNAGym collection of RNA variant scans (doi:10.7554/elife.90254).

B1: OR4K15 (parent)
chain: GUUAACGGUCAUAGGCCAUGGAAACUAGGAGCACCAUUUCGCUGCCAGUGAAGAAAUGAACAAAGAAAAUCUGGGCCAGGCAGGCAUCAAAAGAAAUAGUCUUGCGCUCAACCAGAAAGUCUGUAAUCAUUUUAAGGGUA

The data set covers variants of B1. The data set can be described thus: self-cleavage, relative activity (ratio to wild type); higher = more cleavage; in vitro, sequencing; the parent is a self-cleaving ribozyme.
In the case of GUUAACGGUCAUAGGCCAUGGAAACUAGGAGCACCAUUUCGCUGCCAGUGAAGGAAUGAACAAAGAAAAUCUGGGCCAGGCAGGCAUCAAAAGAAAUAGUCUCGCGCUCAAUCAGAAAGUCUGUAAUCAUUUUAAGGGUA, the self-cleavage came out at 0.02.
As for GUUAACGGUCAUAGGCCAUGGAAACUAGGAGCACCAUUUCGCUGCCAGUGAAGGAAUGAACAAAGAAAAUCUGGGCCAGGCAGGCACCAAAAGAAAUAGUCUUGCGCUCAACCAGAAAGUCUGUAAUCACUUUAAGGGUA, the self-cleavage worked out at 1.33.
As for GUUAACGGUCAUAGGCCAUGGAAACUAGGAGCACCAUUUCGCUGCCAGUGAAGGAAUGAACAAAGAAAAUCUGGGCCAGGCAGGCACCAAAAGAAAUAGUCUCGCGCUCAUCCAGAAAGUCUGUAAUCAUUUUAAGGGUA, the figure is 0.03.
With GUUAACGGUCAUAGGCCAUGGAAACUAGGAGCACCAUUUCGCUGCCAGUGAAGGAAUGAACAAAGAAAAUCUGGGCCAGGCAGGCAUCAAAAGAAGUAGUCUUGCGCUCAACCAGAAAGUCUGUAAUCAUCUUAAGGGUA, the self-cleavage is 1.76.
The result for GUUAACGGUCAUAGGCCAUGGAAACUAGGAGCACCAUUUCGCUGCCAGUGAAGGAAUGAACAAAGAAAAUCUGGGCCAGGCAGGCACCAAAAGAAAUAGUCUUGCGCUCAACCAGAAAGUCUGUAAUCAUUUUAGGGGUA reads 1.39.
The result for GUUAACGGUCAUAGGCCAUGGAAACUAGGAGCACCAUUUCGCUGCCAGUGAAGGAAUGAACAAAGAAAAUCUGGGCCAGGCAGGCACCAAAAGAAAUAGUCUUGCGCUCGUCCAGAAAGUCUGUAAUCAUUUUAAGGGUA reads 0.02.
As to GUUAACGGUCAUAGGCCAUGGAAACUAGGAGCACCAUUUCGCUGCCAGUGAAGGAAUGAACAAAGAAAAUCUGGGCCAGGCAGGCAUCAAAAGAAAUAGUCUUGCGCUCAACCAGGAAGUCUGUAACCAUUUUAUGGGUA, the self-cleavage is 0.76.
The result for GUUAACGGUCAUAGGCCAUGGAAACUAGGAGCACCAUUUCGCUGCCAGUGAAGGAAUGAACAAAGAAAAUCUGGGCCAGGCAGGCAUCAAAAGAAAUAGUCUCGCGCUCAACCAGAGAGUCUGUAAUCAUUUUAAGGGUA reads 1.59; that for GUUAACGGUCAUAGGCCAUGGAAACUAGGAGCACCAUUUCGCUGCCAGUGAAGUAAUGAGCAAGGAAAAUCUGGGCCAGGCAGGCAUCAGAAGAAAUAGUCUUGCGCUCAACCAGAAAGUCUGUAAUCAUUUUAAGGGUA, 0.28; that for GUUAACGGUCAUAGGCCAUGGAAACUAGGAGCACCAUUUCGCUGCCAGUGAAGGAAUGAACAAAGAAAACCUGGGCCAGGCAGGCAUCAAAAGAUAUAGUCUUGCGCUCAACCAGAAGGUCUGUAAUCAUUUUAAGGGUA, 0.07.
For GUUAACGGUCAUAGGCCAUGGAAACUAGGAGCACCAUUUCGCUGCCAGUGAAGGAAUGAACAAAGAAAAUCUGGGCCAGGCAGGCAUCAAAAGAAAUAGUCUUGCGCUCAACCAGAAAGUCUGUAGUCAUCUUAAGGGUA, the self-cleavage came to 1.08.
The result for GUUAACGGUCAUAGGCCAUGGAAACUAGGAGCACCAUUUCGCUGCCAGUGAAGGAAUGAACAAAGAAAAUCUGGGCCAGGCAGGCAUCAAAAGAAAUAGUCCUGUGCUCAACCAGAAAGUCUGUAAUCAUUUUAAGGGUA reads 0.55.
The result for GUUAACGGUCAUAGGCCAUGGAAACUAGGAGCACCAUUUCGCUGCCAGUGAAGGAAUGAACAAAGAAAAUCUGGGCCAGGCAGGCAUCAAAAGAAAUAGUCUUGCGCUCAACCAGAGAGUCUGUAAACAUUUUAAGGGUA reads 1.83; that for GUUAACGGUCAUAGGCCAUGGAAACUAGGAGCACCAUUUCGCUGCCAGUGAAGGAACGAACAAAGAAAAUCUGGGCCAGGCAGGCAUCAGAAGAAAUAGUCUUGCGCUCAACCAGAAAGUCUGUAAUCAUUUUAAGGGUA, 0.52; that for GUUAACGGUCAUAGGCCAUGGAAACUAGGAGCACCAUUUCGCUGCCAGUGAAGGAAAGAACAAAGAAAAUCUGGGCCGGGCAGGCAUCAAAAGAAAUAGUCUUGCGCUCAACCAGAAAGUCUGUAAUCAUUUUAAGGGUA, 0.33.
As to GUUAACGGUCAUAGGCCAUGGAAACUAGGAGCACCAUUUCGCUGCCAGUGAAGGAAUGAACAAAGAAAAUCUGGGCCAGGCAGGCAUCAAAAGAAAUAGUCUUGCGCUCAACCAGGAAGUCUGUAAUCAUCUUAAGGGUA, the self-cleavage amounted to 0.32.
GUUAACGGUCAUAGGCCAUGGAAACUAGGAGCACCAUUUCGCUGCCAGUGAAGGAAUGAACAAAGAAAACCUGGGCCAGGCAGGCAUCAAAAGAAAUAGUCUUGCGCUCAACCAGAAAGUCUGAAAUCAUUUUAAGGGUA: the self-cleavage worked out at 0.41.
As for GUUAACGGUCAUAGGCCAUGGAAACUAGGAGCACCAUUUCGCUGCCAGUGAAGUAGUGAACAAAGUAAAUCUGGGCCAGGCAGGCAUCAAAAGAAAUAGUCUUGCGCUCAACCAGAAAGUCUGUUAUCAUUUUAAGGGUA, the figure is 0.89; as for GUUAACGGUCAUAGGCCAUGGAAACUAGGAGCACCAUUUCGCUGCCAGUGAAGGAAUGAACAAAGAAAAUCUGGGCCAGGCAGGCACCAAAAGAAAAAGUCUUGCGCUCAACCAGGAAGUCUGUAACCAUCUUAAGGGUA, 0.09; as for GUUAACGGUCAUAGGCCAUGGAAACUAGGAGCACCAUUUCGCUGCCAGUGAAGGAAUGAACAAAGAAAAUCUGGGCCAGGCAGGCAUCAAAAGAAAUAGUCUUGCGCCCAACCAGAAAGUCUGUGAUCGUUUUAAGGGUA, 0.
The result for GUUAACGGUCAUAGGCCAUGGAAACUAGGAGCACCAUUUCGCUGCCAGUGAAGGAAUGAACAAAGAAAAUCUGGGCCAGGCAGGCAUCAAAAGAAAUAGUCUUGCGCUCAACCAGAAAGUCUGUAAUCGUUUUAGGGGUA reads 1.49.
